{
  "source": "ChEMBL document CHEMBL4888484",
  "about": "“Replenishing the malaria drug discovery pipeline: Screening and hit evaluation of the MMV Hit Generation Library 1 (HGL1) against asexual blood stage Plasmodium falciparum ,using a nano luciferase reporter read-out” (2022)",
  "note": "Screen size: about 150,000 compounds; about 540 (0.36%) showed an effect of 50% or more. Some of the results follow.",
  "data": [
    {"tested_on": "Plasmodium falciparum", "assay": "Primary screen in NF54 nanoGlo assay, in single point, at 2uM, 72h; a lower Z score goes with more inhibition", "type": "functional, Erythrocyte", "conditions": "timepoint 72 hour", "units": {"% Inhibition": "%"}, "values": [
      {"compound": "CCn1nncc1C(=O)N[C@H](C)C1CCCC1", "% Inhibition": 1, "Z score": -0.14},
      {"compound": "CC1(C)NC(=O)N(Cc2noc(CCC(=O)NC3CCCC3)n2)C1=O", "% Inhibition": -12, "Z score": 1.58},
      {"compound": "CCC(CC)C(=O)c1c[nH]c(C(N)=O)c1", "% Inhibition": 34, "Z score": -4.39},
      {"compound": "OCCCN(Cc1cccnc1)Cc1cn2cc(Cl)ccc2n1", "% Inhibition": -8, "Z score": 0.85},
      {"compound": "COc1ccc(-c2noc(N(C)CC(=O)Nc3ccc(OC)c(OC)c3)n2)cc1", "% Inhibition": -3, "Z score": 0.56},
      {"compound": "COCC1(NCC(=O)NCc2ccc(C)s2)CCOCC1", "% Inhibition": -2, "Z score": 0.22},
      {"compound": "CC(C)c1c(C(=O)N2CC[C@H](N(C)C)C2)cnn1-c1nccc(-c2ccccc2F)n1", "% Inhibition": -3, "Z score": 0.41},
      {"compound": "CC(C)N(C(=O)c1coc(CC2CC2)n1)C1CCCCC1", "% Inhibition": -5, "Z score": 0.54},
      {"compound": "Cc1nc(C)c(C(=O)N2CCN(Cc3ccccc3)[C@@H]3CS(=O)(=O)C[C@@H]32)o1", "% Inhibition": -15, "Z score": 1.92},
      {"compound": "CCCC[C@H](CC)C(=O)NCc1nc(C)no1", "% Inhibition": -4, "Z score": 0.57},
      {"compound": "Cc1cccc(C(O)CN(Cc2ccccc2)C(=O)C2CCCN(C(=O)C(C)C)C2)c1", "note": "(stereo not drawn)", "% Inhibition": -13, "Z score": 2.06},
      {"compound": "FC(F)(F)Oc1cccc(N2CC[C@H](NCc3csnn3)C2)c1", "% Inhibition": -6, "Z score": 0.57},
      {"compound": "Cc1cnc([C@@H](C)CNC(=O)NCCc2cn3c(n2)CCCC3)s1", "% Inhibition": -2, "Z score": 0.22},
      {"compound": "CCOc1ccc(/N=C(\\NCc2c(C)nn(CC)c2C)NC(=O)c2ccc(OC)c(OC)c2)cc1", "% Inhibition": 3, "Z score": -0.47},
      {"compound": "COc1cc(NC(=O)c2cc(C3CC3)on2)ncn1", "% Inhibition": -8, "Z score": 1.52},
      {"compound": "Cc1cc(C(=O)N[C@@H](C)c2csnn2)on1", "% Inhibition": -3, "Z score": 0.41},
      {"compound": "O=S(=O)(Cc1ccccc1)N(CCO)CCO", "% Inhibition": -8, "Z score": 0.79},
      {"compound": "CN(C)c1noc(CCC(=O)N[C@H](c2ccccc2)C(F)F)n1", "% Inhibition": -8, "Z score": 1.06},
      {"compound": "CCCCC1(NC(=O)c2nnc(C)s2)CC1", "% Inhibition": -12, "Z score": 1.95},
      {"compound": "C[C@](O)(CNS(=O)(=O)c1ccc(Cl)s1)C1CC1", "% Inhibition": -9, "Z score": 1.53},
      {"compound": "OCc1cccc(-c2ccc3c(c2)OC[C@@H](N2CCCC2)[C@@H]3O)c1", "% Inhibition": 6, "Z score": -1.12},
      {"compound": "COc1cc2cc(C(=O)Nc3cccc(Cl)c3)cc(-c3ccc(C)cc3)c2cc1OC", "% Inhibition": -12, "Z score": 1.58},
      {"compound": "COC(=O)c1cn(CCOc2ccc(C#N)cc2)c(C)n1", "% Inhibition": -11, "Z score": 2.14},
      {"compound": "N#Cc1ccc(NCCN2CCOCC2)cc1", "% Inhibition": -6, "Z score": 0.82}
    ]}
  ]
}
